In PubChem BioAssay AID894 (National Center for Advancing Translational Sciences (NCATS), 2007):
The whole screen tested about 150,000 compounds, of which about 6,500 (4.3%) were called active. The inconclusive results got no clear call from the source; some entries with a clear call stand among them for comparison. Calls come from the whole dose curve; as a rule, active = well fitted inhibition curve with a large enough effect (not every such curve was filed as active); inconclusive = small, poorly fitted or top-dose-only effect, or another doubt; inactive = no such curve, though single readings can be large or run the other way. Potencies of inconclusive entries are left out as doubtful fits.
% is set by controls: 0 for no effect and ±100 for the full control effect; potency is the fitted concentration of half-maximal effect; tags give direction and shape of the fitted curve.

What follows are molecules tested against 15-hydroxyprostaglandin dehydrogenase [NAD(+)] (Homo sapiens) (UniProt P15428) (assay: qHTS Assay for Inhibitors of HPGD (15-Hydroxyprostaglandin Dehydrogenase)). Details: purified HPGD, NADH fluorescence kinetic, PGE2 substrate; activity change, negative = inhibition: active compounds read low.
Sequence of UniProt P15428 (P15428 whole entry, looked up): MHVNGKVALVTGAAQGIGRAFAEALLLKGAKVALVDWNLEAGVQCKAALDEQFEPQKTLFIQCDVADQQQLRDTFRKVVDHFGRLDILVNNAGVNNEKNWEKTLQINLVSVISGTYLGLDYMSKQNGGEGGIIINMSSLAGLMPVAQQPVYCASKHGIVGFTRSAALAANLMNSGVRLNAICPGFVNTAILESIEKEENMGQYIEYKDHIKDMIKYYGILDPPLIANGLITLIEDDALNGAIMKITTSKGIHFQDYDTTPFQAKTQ
Procedure, shortened: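 20 nM HPGD preincubated 15 min at room temperature with compound in 50 mM Tris-HCl pH 8, 0.01% Tween 20. Started with 1 mM NAD+ and 30 uM prostaglandin E2; NADH fluorescence (360/450 nm) read 5 times over 30-s intervals, last minus first.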
`CCOc1ccc2nc(C)cc(C(=O)O)c2c1` was tested, and the Potency was inconclusive [inhibitor, partial curve]. For `O=C(OCn1ncc(Cl)c(Cl)c1=O)c1ccccc1Cl`, the activity change, negative = inhibition was inactive: -28.2%. With `COc1ccc2[nH]c(C)c(CN3CCC(C)CC3)c(=O)c2c1` the Potency was inconclusive [inhibitor, partial curve]. In the case of `S=C1NCCc2ccc(Cl)cc2C1c1ccccc1Cl` (stereo not given), the activity change, negative = inhibition is reported as inactive: -5.44%. With `CCOC(=O)N1CCC(NC(=O)C2CCCN(S(=O)(=O)c3ccc4c(c3)oc(=O)n4C)C2)CC1` (stereo not given) the activity change, negative = inhibition was inactive: -2.78%. In the case of `COc1cccc(CNC(=O)C2CCN(S(=O)(=O)c3c(C)nn(C)c3C)CC2)c1`, the activity change, negative = inhibition is reported as inactive: -2.55%. For `CCOC(=O)c1cnc2c(-c3ccccc3)cnn2c1N`, the Potency was inconclusive [inhibitor, single point]. For `CCOC(=O)c1c(-c2ccc(C)cc2)csc1NC(=O)CCSc1nnc2ccccn12`, the Potency was inconclusive [inhibitor, partial curve]. In the case of `Cc1ccc2c(c1)c1ncnc(N3CCN(c4ccccc4)CC3)c1n2C`, the Potency is reported as inconclusive [inhibitor, partial curve]. With `Cc1ccc(OCCNC(=O)c2cncc(Br)c2)cc1C` the activity change, negative = inhibition was inactive: -9.66%. `c1ccc(-c2cc(-c3ccc(N4CCOCC4)cc3)nc3ccccc23)cc1` was tested, and the Potency was inconclusive [inhibitor, partial curve]. With `CCCOc1ccc(Br)cc1-c1cc(-c2ccc(Cl)cc2)[nH]c1-c1ccncc1` the Potency was inconclusive [inhibitor, partial curve]. With `N#CC1(NC(=O)COc2ccc3oc4ccccc4c3c2)CCCCC1` the Potency was inconclusive [inhibitor, partial curve]. In the case of `C=CCn1c2ccccc2c2nnc(SCc3ccc4nonc4c3)nc21`, the activity change, negative = inhibition is reported as inactive: -29.7%. For `COc1ccccc1-c1cc(C(=O)Nc2ccccc2SC)no1`, the Potency was inconclusive [inhibitor, partial curve]. In the case of `O=C(c1ccc(S(=O)(=O)Cc2cc(F)ccc2F)c([N+](=O)[O-])c1)N1CCCCC1`, the Potency is reported as active: 14.1 µM. `CCCCCCCCOc1ccc(C2OC34CCCCC3C(C#N)(C#N)C2(C#N)C(=N)O4)cc1` (stereo not given) was tested, and the Potency was inconclusive [inhibitor, partial curve]. With `COc1cccc(-c2cc(C(=O)Nc3nc4ccccc4s3)c3ccccc3n2)c1` the Potency was inconclusive [inhibitor, partial curve]. `Cc1nc2c(C(=O)NCCC(C)C)c[nH]n2c(=O)c1Cl` was tested, and the Potency was inconclusive [inhibitor, partial curve]. For `CCOC(=O)c1sc(NC(=O)c2cccc(S(=O)(=O)N3CCN(C)CC3)c2)cc1C`, the Potency was active: 25.1 µM. `COc1ccc(C2C(C(=O)c3ccccc3)=C(C)Nc3nc4ccccc4n32)cc1OC` (stereo not given) was tested, and the Potency was inconclusive [inhibitor, single point]. For `O=C(CSc1cccc2cccnc12)NCc1ccco1`, the Potency was inconclusive [inhibitor, partial curve]. With `Cc1ccccc1-n1c(SCC(=O)NCc2cccs2)nc2ccccc2c1=O` the Potency was inconclusive [inhibitor, partial curve]. For `COc1ccc(CC(=O)Nc2ccc(C(=O)NCC(C)C)cc2)cc1`, the Potency was inconclusive [inhibitor, partial curve]. With `CC(C)CNc1oc(-c2ccco2)nc1C#N` the Potency was inconclusive [inhibitor, partial curve]. With `Cc1ccc(-n2c(Cl)c(Cl)nc(Cl)c2=O)cc1` the Potency was active: 2.51 µM. With `CCOC(=O)c1nnn(-c2nonc2-n2cccc2)c1C` the Potency was inconclusive [inhibitor, single point]. For `O=C(CSc1ncnc2c1oc1ccccc12)NCc1ccco1`, the Potency was active: 8.91 µM. In the case of `CCOC(=O)c1c(C)n(C(=O)c2ccco2)c(=O)n1C(=O)c1ccco1`, the Potency is reported as active: 22.4 µM. For `Cc1nc2ccccc2nc1OCc1cccc(Cl)c1`, the Potency was inconclusive [inhibitor, partial curve]. For `CCC(CC)C(=O)NCCc1cc2ccc(C)cc2[nH]c1=O`, the Potency was inconclusive [inhibitor, partial curve, poor fit]. With `CC(C)c1ccc(NC(=S)NN(c2ccccc2)c2ccccc2)cc1` the Potency was active: 22.4 µM. With `COc1c(Cl)cnn(-c2ccc(C)cc2)c1=O` the activity change, negative = inhibition was inactive: -13.2%. In the case of `CC(C)C1COc2cc3oc(=O)ccc3cc2O1` (stereo not given), the Potency is reported as inconclusive [inhibitor, partial curve]. In the case of `Cc1ccc2nc(C)c(C(=O)N/N=C/c3ccc(N4CCOCC4)cc3)cc2c1`, the Potency is reported as inconclusive [inhibitor, partial curve]. In the case of `CN1CCN(S(=O)(=O)c2ccc3[nH]c(=O)oc3c2)CC1`, the activity change, negative = inhibition is reported as inactive: -17.1%. `O=C(/C=C/c1ccccc1)N1CCN(Cc2nc3ccccc3c(=O)[nH]2)CC1` was tested, and the Potency was active: 31.6 µM. `CCn1cc(C(=O)NCCc2ccccc2)c(=O)c2cc(F)c(N3CCN(C)CC3)cc21` was tested, and the Potency was inconclusive [inhibitor, partial curve]. For `CCOC(=O)COc1c(OC)cc(Cl)cc1C1Nc2ccccc2C(=O)N1c1ccccc1` (stereo not given), the Potency was inconclusive [inhibitor, partial curve]. For `CCOc1ccccc1Nc1ccc(C(=O)O)cc1NC(C)=O`, the Potency was active: 22.4 µM. In the case of `CCOC(=O)c1sc2nc(C3CC3)cc(-c3ccc(F)cc3)c2c1N`, the Potency is reported as inconclusive [inhibitor, partial curve]. In the case of `CCC(Sc1nnnn1C)C(=O)Nc1ccc(C(C)=O)cc1` (stereo not given), the activity change, negative = inhibition is reported as inactive: -8.11%. In the case of `Cc1ccc(-c2nc3cc(C)ccc3o2)cc1`, the Potency is reported as inconclusive [inhibitor, partial curve]. For `CC(/C=C/c1ccc(N(C)C)cc1)=N\N=C(/N)SC1CC(=O)N(c2ccc(C(=O)O)cc2)C1=O` (stereo not given), the Potency was inconclusive [inhibitor, single point]. `Cc1cccc(-n2c3nc(=O)[nH]c(=O)c-3cc3c(C)nn(-c4ccccc4)c32)c1C` was tested, and the Potency was inconclusive [inhibitor, partial curve].
